# Source: the supplement of paper PMC8728848
# The other results are listed elsewhere or left out.
# Columns and labels:
# Assay in all cases: glycan array binding signal (z-score within array); higher = stronger binding
# Settings in all cases: glycan notation: IUPAC condensed, linker removed
# Fuc(a1-2)Gal = molecular target: Fuc(a1-2)Gal
# In short: (§1)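 The Consortium for Functional Glycomics database supplied 3228 glycan arrays, of which those lacking an available protein sequence were dropped. The binding signal, a within-array Z-score, was averaged across arrays of the same protein sequence and across linkers. Negative scores can be read as non-binding.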
# Fuc(a1-2)Gal(b1-3)GalNAc = molecular target: Fuc(a1-2)Gal(b1-3)GalNAc
# In short: as §1
# [1] = molecular target: Fuc(a1-2)Gal(b1-3)GalNAc(b1-3)Gal
# In short: as §1
# [2] = molecular target: Fuc(a1-2)Gal(b1-3)GalNAc(b1-3)Gal(a1-4)Gal(b1-4)Glc
# In short: as §1
# [3] = molecular target: Fuc(a1-2)Gal(b1-3)GalNAc(b1-3)Gal(b1-4)Glc
# In short: as §1
# [4] = molecular target: Fuc(a1-2)Gal(b1-3)GalNAc(b1-4)[Neu5Ac(a2-3)]Gal(b1-4)Glc
# In short: as §1
# [5] = molecular target: Fuc(a1-2)Gal(b1-3)[Fuc(a1-4)]GlcNAc
# In short: as §1
# Fuc(a1-2)Gal(b1-4)Glc = molecular target: Fuc(a1-2)Gal(b1-4)Glc
# In short: as §1
# Fuc(a1-2)Gal(b1-4)GlcNAc = molecular target: Fuc(a1-2)Gal(b1-4)GlcNAc
# In short: as §1
# [6] = molecular target: Fuc(a1-2)Gal(b1-4)GlcNAc(b1-3)Gal(b1-4)GlcNAc
# In short: as §1
# [7] = molecular target: Fuc(a1-2)Gal(b1-4)GlcNAc(b1-3)Gal(b1-4)GlcNAc(b1-3)Gal(b1-4)GlcNAc
# In short: as §1
# [8] = molecular target: Fuc(a1-2)Gal(b1-4)[Fuc(a1-3)]GalNAc(b1-3)Gal(b1-4)[Fuc(a1-3)]GlcNAc
# In short: as §1
# [9] = molecular target: Fuc(a1-2)Gal(b1-4)[Fuc(a1-3)]GalNAc(b1-3)Gal(b1-4)[Fuc(a1-3)]GlcNAc(b1-3)Gal(b1-4)[Fuc(a1-3)]GalNAc
# In short: as §1
# [10] = molecular target: Fuc(a1-2)Gal(b1-4)[Fuc(a1-3)]GlcNAc
# In short: as §1
# Fuc(a1-2)GlcNAc = molecular target: Fuc(a1-2)GlcNAc
# In short: as §1
# Fuc(a1-2)[Gal(a1-3)]Gal = molecular target: Fuc(a1-2)[Gal(a1-3)]Gal
# In short: as §1
# [11] = molecular target: Fuc(a1-2)[Gal(a1-3)]Gal(b1-3)GlcNAc
# In short: as §1
# [12] = molecular target: Fuc(a1-2)[Gal(a1-3)]Gal(b1-4)Glc
# In short: as §1
# [13] = molecular target: Fuc(a1-2)[Gal(a1-3)]Gal(b1-4)GlcNAc
# In short: as §1
# [14] = molecular target: Fuc(a1-2)[Gal(a1-3)]Gal(b1-4)[Fuc(a1-3)]GlcNAc
# In short: as §1
# [15] = molecular target: Fuc(a1-2)[Gal(a1-4)]Gal(b1-4)GalNAc
# In short: as §1
# [16] = molecular target: Fuc(a1-2)[GalNAc(a1-3)]Gal
# In short: as §1
# [17] = molecular target: Fuc(a1-2)[GalNAc(a1-3)]Gal(b1-3)GlcNAc
# In short: as §1
# [18] = molecular target: Fuc(a1-2)[GalNAc(a1-3)]Gal(b1-4)Glc
# In short: as §1
# [19] = molecular target: Fuc(a1-2)[GalNAc(a1-3)]Gal(b1-4)GlcNAc
# In short: as §1
# [20] = molecular target: Fuc(a1-2)[GalNAc(a1-3)]Gal(b1-4)[Fuc(a1-3)]GlcNAc
# In short: as §1
# [21] = molecular target: Fuc(a1-2)[GalNAc(a1-4)]Gal(b1-4)GlcNAc
# In short: as §1
# Fuc(a1-3)GlcNAc = molecular target: Fuc(a1-3)GlcNAc
# In short: as §1
# [22] = molecular target: Fuc(a1-3)[Gal(b1-4)]GlcNAc
# In short: as §1
# [23] = molecular target: Fuc(a1-3)[Gal(b1-4)]GlcNAc(b1-4)Gal(b1-4)[Fuc(a1-3)]GlcNAc
# In short: as §1
# [24] = molecular target: Fuc(a1-3)[Gal(b1-4)]GlcNAc(b1-4)Gal(b1-4)[Fuc(a1-3)]GlcNAc(b1-4)Gal(b1-4)[Fuc(a1-3)]GlcNAc
# In short: as §1
# [25] = molecular target: Fuc(a1-3)[Gal3S(b1-4)]GlcNAc
# In short: as §1
# [26] = molecular target: Fuc(a1-3)[GalNAc(b1-4)]Gal(b1-4)GlcNAc
# In short: as §1
# Fuc(a1-4)GlcNAc = molecular target: Fuc(a1-4)GlcNAc
# In short: as §1
# Fuc(b1-3)GlcNAc = molecular target: Fuc(b1-3)GlcNAc
# In short: as §1
# Gal(a1-2)Gal = molecular target: Gal(a1-2)Gal
# In short: as §1
# Gal(a1-3)Gal = molecular target: Gal(a1-3)Gal
# In short: as §1
# Gal(a1-3)Gal(b1-3)Glc = molecular target: Gal(a1-3)Gal(b1-3)Glc
# In short: as §1
# Gal(a1-3)Gal(b1-3)GlcNAc = molecular target: Gal(a1-3)Gal(b1-3)GlcNAc
# In short: as §1
# Gal(a1-3)Gal(b1-4)GlcNAc = molecular target: Gal(a1-3)Gal(b1-4)GlcNAc
# In short: as §1
# [27] = molecular target: Gal(a1-3)Gal(b1-4)[Fuc(a1-3)]GalNAc
# In short: as §1
# Gal(a1-3)GlcNAc = molecular target: Gal(a1-3)GlcNAc
# In short: as §1
# [28] = molecular target: Gal(a1-3)[Gal(a1-4)]Gal(b1-4)GlcNAc
# In short: as §1
# Gal(a1-4)Gal(b1-4)Gal = molecular target: Gal(a1-4)Gal(b1-4)Gal
# In short: as §1
# Gal(a1-4)Gal(b1-4)GalNAc = molecular target: Gal(a1-4)Gal(b1-4)GalNAc
# In short: as §1
# Gal(a1-4)GlcNAc = molecular target: Gal(a1-4)GlcNAc
# In short: as §1
# Gal(a1-6)Glc = molecular target: Gal(a1-6)Glc
# In short: as §1
# Gal(b1-2)Gal = molecular target: Gal(b1-2)Gal
# In short: as §1
# Gal(b1-3)Gal = molecular target: Gal(b1-3)Gal
# In short: as §1
# Gal(b1-3)GalNAc = molecular target: Gal(b1-3)GalNAc
# In short: as §1
# [29] = molecular target: Gal(b1-3)GalNAc(b1-3)Gal(a1-4)Gal(b1-4)Glc
# In short: as §1
# [30] = molecular target: Gal(b1-3)GalNAc(b1-3)Gal(b1-4)Glc
# In short: as §1
# [31] = molecular target: Gal(b1-3)GalNAc(b1-3)Gal(b1-4)GlcNAc
# In short: as §1
# [32] = molecular target: Gal(b1-3)GalNAc(b1-4)Gal(b1-4)Glc
# In short: as §1
# [33] = molecular target: Gal(b1-3)GalNAc(b1-4)[Neu5Ac(a2-3)]Gal(b1-4)Glc
# In short: as §1
# [34] = molecular target: Gal(b1-3)[Fuc(a1-4)]GlcNAc
# In short: as §1
# [35] = molecular target: Gal(b1-3)[Fuc(a1-4)]GlcNAc(b1-3)Gal(b1-4)GlcNAc
# In short: as §1
# [36] = molecular target: Gal(b1-3)[Fuc(a1-4)]GlcNAc(b1-3)Gal(b1-4)[Fuc(a1-3)]GlcNAc
# In short: as §1
# [37] = molecular target: Gal(b1-3)[GlcNAc(b1-6)]GalNAc
# In short: as §1
# [38] = molecular target: Gal(b1-3)[GlcNAc(b1-6)]GlcNAc
# In short: as §1
binder,measurement,setting,value
"FBG5 (Homo sapiens), Q8NI29 (protein) MGASVSRGRAARVPAPEPEPEEALDLSQLPPELLLVVLSHVPPRTLLGRCRQVCRGWRALVDGQALWLLILARDHGATGRALLHLARSCQSPARNARPCPLGRFCARRPIGRNLIRNPCGQEGLRKWMVQHGGDGWVVEENRTTVPGAPSQTCFVTSFSWCCKKQVLDLEEEGLWPELLDSGRIEICVSDWWGARHDSGCMYRLLVQLLDANQTVLDKFSAVPDPIPQWNNNACLHVTHVFSNIKMGVRFVSFEHRGQDTQFWAGHYGARVTNSSVIVRVRLS",glycan array binding signal (z-score),Fuc(a1-2)Gal,0.101
same,glycan array binding signal (z-score),Fuc(a1-2)Gal(b1-3)GalNAc,0.003
same,glycan array binding signal (z-score),[1],0.14
same,glycan array binding signal (z-score),[2],0.044
same,glycan array binding signal (z-score),[3],-0.166
same,glycan array binding signal (z-score),[4],-0.145
same,glycan array binding signal (z-score),[5],-0.097
same,glycan array binding signal (z-score),Fuc(a1-2)Gal(b1-4)Glc,0.099
same,glycan array binding signal (z-score),Fuc(a1-2)Gal(b1-4)GlcNAc,0.159
same,glycan array binding signal (z-score),[6],0.235
same,glycan array binding signal (z-score),[7],0.126
same,glycan array binding signal (z-score),[8],0.257
same,glycan array binding signal (z-score),[9],0.353
same,glycan array binding signal (z-score),[10],0.173
same,glycan array binding signal (z-score),Fuc(a1-2)GlcNAc,0.024
same,glycan array binding signal (z-score),Fuc(a1-2)[Gal(a1-3)]Gal,-0.143
same,glycan array binding signal (z-score),[11],-0.211
same,glycan array binding signal (z-score),[12],-0.211
same,glycan array binding signal (z-score),[13],-0.173
same,glycan array binding signal (z-score),[14],0.248
same,glycan array binding signal (z-score),[15],-0.19
same,glycan array binding signal (z-score),[16],-0.147
same,glycan array binding signal (z-score),[17],0.149
same,glycan array binding signal (z-score),[18],0.967
same,glycan array binding signal (z-score),[19],-0.085
same,glycan array binding signal (z-score),[20],-0.056
same,glycan array binding signal (z-score),[21],-0.16
same,glycan array binding signal (z-score),Fuc(a1-3)GlcNAc,0.417
same,glycan array binding signal (z-score),[22],-0.107
same,glycan array binding signal (z-score),[23],0.032
same,glycan array binding signal (z-score),[24],0.032
same,glycan array binding signal (z-score),[25],-0.187
same,glycan array binding signal (z-score),[26],-0.19
same,glycan array binding signal (z-score),Fuc(a1-4)GlcNAc,-0.064
same,glycan array binding signal (z-score),Fuc(b1-3)GlcNAc,-0.186
same,glycan array binding signal (z-score),Gal(a1-2)Gal,-0.096
same,glycan array binding signal (z-score),Gal(a1-3)Gal,-0.047
same,glycan array binding signal (z-score),Gal(a1-3)Gal(b1-3)Glc,-0.18
same,glycan array binding signal (z-score),Gal(a1-3)Gal(b1-3)GlcNAc,-0.215
same,glycan array binding signal (z-score),Gal(a1-3)Gal(b1-4)GlcNAc,-0.202
same,glycan array binding signal (z-score),[27],-0.177
same,glycan array binding signal (z-score),Gal(a1-3)GlcNAc,-0.153
same,glycan array binding signal (z-score),[28],-0.186
same,glycan array binding signal (z-score),Gal(a1-4)Gal(b1-4)Gal,-0.074
same,glycan array binding signal (z-score),Gal(a1-4)Gal(b1-4)GalNAc,-0.17
same,glycan array binding signal (z-score),Gal(a1-4)GlcNAc,-0.246
same,glycan array binding signal (z-score),Gal(a1-6)Glc,-0.198
same,glycan array binding signal (z-score),Gal(b1-2)Gal,-0.149
same,glycan array binding signal (z-score),Gal(b1-3)Gal,-0.005
same,glycan array binding signal (z-score),Gal(b1-3)GalNAc,-0.134
same,glycan array binding signal (z-score),[29],-0.227
same,glycan array binding signal (z-score),[30],-0.163
same,glycan array binding signal (z-score),[31],-0.243
same,glycan array binding signal (z-score),[32],-0.134
same,glycan array binding signal (z-score),[33],-0.177
same,glycan array binding signal (z-score),[34],-0.178
same,glycan array binding signal (z-score),[35],-0.128
same,glycan array binding signal (z-score),[36],-0.217
same,glycan array binding signal (z-score),[37],-0.224
same,glycan array binding signal (z-score),[38],-0.197
